These results are taken from the supplement of paper PMC4604168 (melanoma cell lines).

The list shows a part of the results. Single values are uncertain, as repeats are few or missing.
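Further: cells treated in 1,536-well plates, then fixed and DAPI-stained, with nuclei counted from automated high-throughput microscope images.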

The first test relates to SkMel2. Nature of the test: cell count relative to DMSO control; melanoma cells; higher = more viable cells. The following applies: library dose: standard library concentration; 72 h.
`Cc1cc(Nc2cc(N3CCN(C)CC3)nc(Sc3ccc(NC(=O)C4CC4)cc3)n2)n[nH]1` [Tozasertib] + Cc1cc([N+](=O)[O-])ccc1NS(=O)(=O)c1cc(Cl)ccc1Cl [FH535] (first compound 0.03 µM, partner dose 5 µM) gave a cell count of 91.9%.

In turn, `N#CC[C@H](C1CCCC1)n1cc(-c2ncnc3[nH]ccc23)cn1` [ruxolitinib] + CCN(CC)CCCCNc1ncc2cc(-c3cc(OC)cc(OC)c3)c(NC(=O)NC(C)(C)C)nc2n1 [PD173074] (first compound 5 µM, partner dose 0.5 µM) displayed a cell count of 101%.

`CC[C@]1(O)C[C@H]2CN(CCc3c([nH]c4ccccc34)[C@@](C(=O)OC)(c3cc4c(cc3OC)N(C=O)[C@H]3[C@@](O)(C(=O)OC)[C@H](OC(C)=O)[C@]5(CC)C=CCN6CC[C@]43[C@@H]65)C2)C1` [vincristine] + NCC(=O)Nc1ccc(-n2nc(C(F)(F)F)cc2-c2ccc3c(ccc4ccccc43)c2)cc1 [OSU03012] (first compound 0.0005 µM, partner dose 5 µM) had a cell count of 48%.

`N#CC[C@H](C1CCCC1)n1cc(-c2ncnc3[nH]ccc23)cn1` [ruxolitinib] + Cc1nc(Nc2ncc(C(=O)Nc3c(C)cccc3Cl)s2)cc(N2CCN(CCO)CC2)n1 [dasatanib] (first compound 5 µM, partner dose 0.02 µM) registered a cell count of 108%.

Compound `CC[C@]1(O)C[C@H]2CN(CCc3c([nH]c4ccccc34)[C@@](C(=O)OC)(c3cc4c(cc3OC)N(C=O)[C@H]3[C@@](O)(C(=O)OC)[C@H](OC(C)=O)[C@]5(CC)C=CCN6CC[C@]43[C@@H]65)C2)C1` [vincristine] + O=C(O)c1ccc(-c2c[nH]c3ncc(-c4ccccc4)cc23)cc1C1CCCC1 [GSK650394] (first compound 0.0005 µM, partner dose 0.8 µM) showed a cell count of 78.3%.

The next test relates to SkMel30. Described as above. The following applies: library dose: standard library concentration; 72 h.
On to `Cc1cc(Nc2cc(N3CCN(C)CC3)nc(Sc3ccc(NC(=O)C4CC4)cc3)n2)n[nH]1` [Tozasertib] + O=C(CCCCCCC(=O)Nc1ccccc1)NO [vorinostat] (first compound 0.03 µM, partner dose 0.4 µM), for which the cell count turned out to be 73.3%.

`Cc1cc(Nc2cc(N3CCN(C)CC3)nc(Sc3ccc(NC(=O)C4CC4)cc3)n2)n[nH]1` [Tozasertib] + Nc1nc(F)nc2c1ncn2[C@@H]1O[C@H](CO)[C@@H](O)[C@@H]1O [fludarabine] (first compound 0.03 µM, partner dose 1 µM): the cell count turned out to be 14.3%.

Consider `N#CC[C@H](C1CCCC1)n1cc(-c2ncnc3[nH]ccc23)cn1` [ruxolitinib] + C=CCNC1=C2C[C@@H](C)C[C@H](OC)[C@H](O)[C@@H](C)/C=C(\C)[C@H](OC(N)=O)[C@@H](OC)/C=C\C=C(/C)C(=O)NC(=CC1=O)C2=O [Tanespimycin] (first compound 5 µM, partner dose 0.01 µM), for which the cell count is 83.1%.

`N#CC[C@H](C1CCCC1)n1cc(-c2ncnc3[nH]ccc23)cn1` [ruxolitinib] + CO[C@@H]1[C@H](N(C)C(=O)c2ccccc2)C[C@H]2O[C@]1(C)n1c3ccccc3c3c4c(c5c6ccccc6n2c5c31)C(=O)NC4 [Midostaurin] (first compound 5 µM, partner dose 0.4 µM) gave a cell count of 67.1%.

`Cc1cc(Nc2cc(N3CCN(C)CC3)nc(Sc3ccc(NC(=O)C4CC4)cc3)n2)n[nH]1` [Tozasertib] + COc1cc2c(Oc3ccc4[nH]c(C)cc4c3F)ncnc2cc1OCCCN1CCCC1 [cediranib] (first compound 0.03 µM, partner dose 2 µM) returned a cell count of 99.7%.

Consider `N#CC[C@H](C1CCCC1)n1cc(-c2ncnc3[nH]ccc23)cn1` [ruxolitinib] + O=C(/C=C/c1cccnc1)NCCCCC1CCN(C(=O)c2ccccc2)CC1 [FK866] (first compound 5 µM, partner dose 0.05 µM), for which the cell count was 112%.

`CC[C@]1(O)C[C@H]2CN(CCc3c([nH]c4ccccc34)[C@@](C(=O)OC)(c3cc4c(cc3OC)N(C=O)[C@H]3[C@@](O)(C(=O)OC)[C@H](OC(C)=O)[C@]5(CC)C=CCN6CC[C@]43[C@@H]65)C2)C1` [vincristine] + COc1cc(Nc2ncc(F)c(Nc3ccc4c(n3)NC(=O)C(C)(C)O4)n2)cc(OC)c1OC [Tamatinib] (first compound 0.0005 µM, partner dose 2 µM): the cell count stood at 37.6%.

Take `N#CC[C@H](C1CCCC1)n1cc(-c2ncnc3[nH]ccc23)cn1` [ruxolitinib] + CC1(C)NC(=O)N(c2ccc([N+](=O)[O-])c(C(F)(F)F)c2)C1=O [nilutamide] (first compound 5 µM, partner dose 5 µM): the cell count stood at 108%.

The compound `CC[C@]1(O)C[C@H]2CN(CCc3c([nH]c4ccccc34)[C@@](C(=O)OC)(c3cc4c(cc3OC)N(C=O)[C@H]3[C@@](O)(C(=O)OC)[C@H](OC(C)=O)[C@]5(CC)C=CCN6CC[C@]43[C@@H]65)C2)C1` [vincristine] + CC1(C)NC(=O)N(c2ccc([N+](=O)[O-])c(C(F)(F)F)c2)C1=O [nilutamide] (first compound 0.0005 µM, partner dose 5 µM) yielded a cell count of 58.9%.

For the compound `N#CC[C@H](C1CCCC1)n1cc(-c2ncnc3[nH]ccc23)cn1` [ruxolitinib] + CC(C)C[C@H](NC(=O)[C@H](Cc1ccccc1)NC(=O)c1cnccn1)B(O)O [Bortezomib] (first compound 5 µM, partner dose 0.005 µM), the cell count is 32.3%.

`CC[C@]1(O)C[C@H]2CN(CCc3c([nH]c4ccccc34)[C@@](C(=O)OC)(c3cc4c(cc3OC)N(C=O)[C@H]3[C@@](O)(C(=O)OC)[C@H](OC(C)=O)[C@]5(CC)C=CCN6CC[C@]43[C@@H]65)C2)C1` [vincristine] + COC(=O)c1sccc1S(=O)(=O)Nc1ccc(Nc2ccccc2)cc1OC [GSK0660] (first compound 0.0005 µM, partner dose 5 µM) showed a cell count of 42.2%.

Compound `N#CC[C@H](C1CCCC1)n1cc(-c2ncnc3[nH]ccc23)cn1` [ruxolitinib] + CS(=O)(=O)CCNCc1ccc(-c2ccc3ncnc(Nc4ccc(OCc5cccc(F)c5)c(Cl)c4)c3c2)o1 [lapatinib] (first compound 5 µM, partner dose 4 µM) showed a cell count of 72.4%.

Compound `Cc1cc(Nc2cc(N3CCN(C)CC3)nc(Sc3ccc(NC(=O)C4CC4)cc3)n2)n[nH]1` [Tozasertib] + C[C@]1(c2nc3c(C(N)=O)cccc3[nH]2)CCCN1 [Veliparib] (first compound 0.03 µM, partner dose 7 µM) displayed a cell count of 85.7%.

`N#CC[C@H](C1CCCC1)n1cc(-c2ncnc3[nH]ccc23)cn1` [ruxolitinib] + Cn1cncc1[C@@](N)(c1ccc(Cl)cc1)c1ccc2c(c1)c(-c1cccc(Cl)c1)cc(=O)n2C [tipifarnib] (first compound 5 µM, partner dose 0.05 µM) returned a cell count of 103%.

`CC[C@]1(O)C[C@H]2CN(CCc3c([nH]c4ccccc34)[C@@](C(=O)OC)(c3cc4c(cc3OC)N(C=O)[C@H]3[C@@](O)(C(=O)OC)[C@H](OC(C)=O)[C@]5(CC)C=CCN6CC[C@]43[C@@H]65)C2)C1` [vincristine] + Cc1cc(Nc2cc(N3CCN(C)CC3)nc(/C=C/c3ccccc3)n2)n[nH]1 [ENMD2076] (first compound 0.0005 µM, partner dose 0.2 µM): the cell count is 88.8%.

The compound `Cc1cc(Nc2cc(N3CCN(C)CC3)nc(Sc3ccc(NC(=O)C4CC4)cc3)n2)n[nH]1` [Tozasertib] + CC(C)CCN1c2nc(Nc3cc(F)c(O)c(F)c3)ncc2N(C)C(=O)C1C [BID1870] (first compound 0.03 µM, partner dose 1 µM) registered a cell count of 90.9%.

In the case of `CC[C@]1(O)C[C@H]2CN(CCc3c([nH]c4ccccc34)[C@@](C(=O)OC)(c3cc4c(cc3OC)N(C=O)[C@H]3[C@@](O)(C(=O)OC)[C@H](OC(C)=O)[C@]5(CC)C=CCN6CC[C@]43[C@@H]65)C2)C1` [vincristine] + CN(NC(=O)CC(=O)NN(C)C(=S)c1ccccc1)C(=S)c1ccccc1 [STA4783] (first compound 0.0005 µM, partner dose 0.03 µM), the cell count turned out to be 45.2%.

`CC[C@]1(O)C[C@H]2CN(CCc3c([nH]c4ccccc34)[C@@](C(=O)OC)(c3cc4c(cc3OC)N(C=O)[C@H]3[C@@](O)(C(=O)OC)[C@H](OC(C)=O)[C@]5(CC)C=CCN6CC[C@]43[C@@H]65)C2)C1` [vincristine] + CO[C@@H]1[C@H](N(C)C(=O)c2ccccc2)C[C@H]2O[C@]1(C)n1c3ccccc3c3c4c(c5c6ccccc6n2c5c31)C(=O)NC4 [Midostaurin] (first compound 0.0005 µM, partner dose 0.4 µM) gave a cell count of 49.8%.

In turn, `N#CC[C@H](C1CCCC1)n1cc(-c2ncnc3[nH]ccc23)cn1` [ruxolitinib] + CN1CCN(c2ccc3nc(-c4c(N)c5c(F)cccc5[nH]c4=O)[nH]c3c2)CC1 [Dovitinib] (first compound 5 µM, partner dose 0.5 µM) yielded a cell count of 98%.

In the case of `N#CC[C@H](C1CCCC1)n1cc(-c2ncnc3[nH]ccc23)cn1` [ruxolitinib] + CN(C)S(=O)(=O)c1ccc2c(c1)/C(=C/c1cc3c([nH]1)CCCC3)C(=O)N2 [SU6656] (first compound 5 µM, partner dose 2 µM), the cell count is 113%.

The compound `Cc1cc(Nc2cc(N3CCN(C)CC3)nc(Sc3ccc(NC(=O)C4CC4)cc3)n2)n[nH]1` [Tozasertib] + O=C(Nc1cccc(Cl)c1)Nc1ncc(CCNc2ncnc3ccsc23)s1 [SNS314] (first compound 0.03 µM, partner dose 0.004 µM) gave a cell count of 71.7%.
